{
  "sequences": {"note": "The chains behind the UniProt entries cited, without tags or fusion partners. Where a name states a change or a piece, a line headed by the entry shows the natural chain unless it says otherwise.", "UniProt Q9FG23": "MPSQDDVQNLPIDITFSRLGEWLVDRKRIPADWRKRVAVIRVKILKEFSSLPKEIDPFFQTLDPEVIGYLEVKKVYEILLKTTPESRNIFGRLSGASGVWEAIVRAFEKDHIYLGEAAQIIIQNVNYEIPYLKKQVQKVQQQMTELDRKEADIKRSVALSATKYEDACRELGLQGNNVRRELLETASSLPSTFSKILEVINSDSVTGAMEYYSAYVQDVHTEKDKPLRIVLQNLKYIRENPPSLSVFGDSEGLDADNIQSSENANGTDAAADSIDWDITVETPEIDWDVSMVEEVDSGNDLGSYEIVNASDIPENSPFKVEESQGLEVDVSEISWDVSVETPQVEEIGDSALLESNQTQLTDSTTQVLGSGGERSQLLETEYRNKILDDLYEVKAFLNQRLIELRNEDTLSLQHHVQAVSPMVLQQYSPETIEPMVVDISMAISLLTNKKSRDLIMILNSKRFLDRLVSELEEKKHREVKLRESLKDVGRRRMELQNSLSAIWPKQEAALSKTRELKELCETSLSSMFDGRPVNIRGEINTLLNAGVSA"},
  "source": "paper PMC7515635",
  "key": {"[1]": {"biological_target": "GST-ATG8A (Arabidopsis thaliana) (UniProt Q8LEM4)", "assay": "pull-down; E. coli lysates with recombinant proteins mixed, glutathione magnetic agarose beads, 1 h 4°C, 100 mM sodium phosphate pH 7.2, 300 mM NaCl, 1 mM DTT, 0.01% IGEPAL; immunoblot; peptides at 200 µM where added"}, "[2]": {"biological_target": "T1, GST-ATG8A^LDS(YL50AA) (Arabidopsis thaliana) (UniProt Q8LEM4)", "T1 sequence": "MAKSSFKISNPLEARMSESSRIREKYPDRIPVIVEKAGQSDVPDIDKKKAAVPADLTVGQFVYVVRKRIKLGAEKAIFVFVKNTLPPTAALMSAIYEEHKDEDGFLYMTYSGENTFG", "assay": "pull-down; E. coli lysates with recombinant proteins mixed, glutathione magnetic agarose beads, 1 h 4°C, 100 mM sodium phosphate pH 7.2, 300 mM NaCl, 1 mM DTT, 0.01% IGEPAL; immunoblot; peptides at 200 µM where added"}, "[3]": {"biological_target": "HIS6-AtC53 (Arabidopsis thaliana) (UniProt Q9FG23)", "assay": "native MS; proteins exchanged into ammonium acetate, nanoelectrospray, Synapt G2Si; C53 1-5 µM or IDR 2.5 µM with 5-20 µM ATG8A or GABARAP; both purified"}},
  "note": "These are yes or no findings as the source states them, for the method shown. For part of these data: Binding seen in cells or lysates may run through a third protein. Some results given as binding are weak or reduced against the parent protein; the word gives no strength. For part of these data: Sequences can lack the tags named with a protein.",
  "data": [
    {"substance": "MBP-AtC53^IDR(239-372) (from UniProt Q9FG23 239-372) (domain or fragment)", "values": [
      {"measurement": "binding", "setting": "[1]", "value": "binds"}
    ]},
    {"substance": "MBP-AtC53 (from UniProt Q9FG23 1-549)", "values": [
      {"measurement": "binding", "setting": "[2]", "value": "no binding"},
      {"measurement": "binding", "setting": "[1]", "value": "binds"}
    ]},
    {"substance": "Strep-AtC53 (from UniProt Q9FG23 1-549)", "values": [
      {"measurement": "binding", "setting": "[1]", "value": "binds"}
    ]},
    {"substance": "HIS6-AtC53 (from UniProt Q9FG23 1-549)", "values": [
      {"measurement": "binding", "setting": "[3]", "value": "no binding (tested: 1 µM)"}
    ]},
    {"substance": "Strep -AtC53^(AIM (F48A, Y69A, Y76A, W100A, Y304A)) (from UniProt Q9FG23 1-549)", "values": [
      {"measurement": "binding", "setting": "[1]", "value": "binds"}
    ]}
  ]
}
